This is an account of results in the RNAGym collection of RNA variant scans (doi:10.7554/elife.90254).

Read counts are not given, so values of variants with three or more changes are uncertain.

Sequences and labels used below:
B1: LINE1-mini (parent)
chain: GGCAGAGCUCAACACAGCGUGGCAAAGUGGCUGUGGCUAGACUGCC

Variants of B1 are the subject of the data set. Briefly: self-cleavage, relative activity (ratio to wild type); higher = more cleavage; in vitro, sequencing; the parent is a self-cleaving ribozyme.
GGUAGAGCUCAUCACAGCGCGGCAAAGUGACUGUGGCUAGACUGCC [C3U A12U U20C G30A]: the self-cleavage stood at 0.03.

Take GGGAGAGCUCAACACAGCGUGGCAAAGUGGCCGUUCCUAGACUGCC [C3G U32C G35U G36C]: the self-cleavage was determined as 0.04.

As for GGUAGAGCUCAACACAGCGUGGCAGUGUGCCUGUGGCUAGACUGUC [C3U A25G A26U G30C C45U], the self-cleavage came out at 0.15.

For GGUAGAGCUCAACACCGCGGGUUAAAGUGGCUGUGGCAAGACUGCG [C3U A16C U20G G22U C23U U38A C46G], the self-cleavage was 0.08.

Regarding GGUCGAGCUCAACACAGCGUGGCAAAGUGGAUGUGGCUAUACUUCC [C3U A4C C31A G40U G44U], the self-cleavage came out at 0.01.

On to GGGAGAGCUCAACACAGCGUGGCAAAGGGGCUGUGGCUAGACUGGC [C3G U28G C45G], for which the self-cleavage worked out at 0.04.

Regarding GGGAGAGCUCAACACAGCGUGGCAAAGUGACUGUGGCAAGACUGCC [C3G G30A U38A], the self-cleavage came to 2.34.

Turning to GGUAGAGCUCAGUACAGCGUGGCAAAGUGGCUGUGGCUAGACUGCC [C3U A12G C13U], the self-cleavage turned out to be 0.03.

As to GGUAGAGCUCAACACAGCGUGGCGAAGUGUCUGUGGCUAGACUGCC [C3U A24G G30U], the self-cleavage was 0.76.

For the variant GGGAGAGCUCAACACAGCGGGGCCAAGUGGCUGUGGCUAGAAUGCC [C3G U20G A24C C42A], the self-cleavage was determined as 0.04.

With GGGAGAGCUCAACACAGCGUGGCAAAGGGACUGUCGCUAGACUGCC [C3G U28G G30A G35C], the self-cleavage worked out at 0.14.

GGUAGAGCUCAACUCAGGGUGGCAAAGUGGCUGUGGCUAGAAUGCC [C3U A14U C18G C42A]: the self-cleavage was 0.08.

For GGUAGAGCUCAACACUGCGUGGCAAAGUGGUUGUGGCUAGGCUUCC [C3U A16U C31U A41G G44U], the self-cleavage is 0.01.

With GGUAGUGCUCAACACAGCGUUGCAAAGUGUCUGUGGCUUGACUGCC [C3U A6U G21U G30U A39U], the self-cleavage was 0.72.

In the case of GGUAGAGCUCAACUCAGCUUGUCAAAUUGGCUGUGGCUAGACUGCC [C3U A14U G19U G22U G27U], the self-cleavage was 0.37.

Take GGUAGAGCUCAACACAGCGUGGCAGCAUGGCUGUGGCUAGACUGCC [C3U A25G A26C G27A]: the self-cleavage is 0.02.

Take GGGAGAGCUCAACACAGCGUGGCAAAGUGGCUGUGGCAAGACUCCC [C3G U38A G44C]: the self-cleavage was found to be 0.24.

As to GGGAGAGCUCAACACAGCGUGGCAAAGUGGCUGUGGCCAGAUUGCC [C3G U38C C42U], the self-cleavage turned out to be 0.03.

GGGAGAGCUCAACACAGCGUGGCAAAGUGGCUGUCGCUAGACUUCC [C3G G35C G44U]: the self-cleavage was 0.19.

As for GGUAGGGCUCAACAAAGCGUGGCAAAGUGGCUGUGGCUAGACUGCC [C3U A6G C15A], the self-cleavage was 0.02.

Consider GGGAGAGCACAACACAGCGUGACAAAGUGGCUGUGGCUAGACUGCG [C3G U9A G22A C46G], for which the self-cleavage was 1.42.

As for GGUAGAGCUCAACACAGCGUGGCAUACUGGCUGGCACUAGACGGCC [C3U A25U G27C U34G G35C G36A U43G], the self-cleavage was found to be 0.1.

Take GGGAGAGCUCAACACAGCGUGGCAAAGUGGCUGUGGCUAAAUUGCA [C3G G40A C42U C46A]: the self-cleavage turned out to be 0.11.

Consider GGUAGAGCUCAACACAGCGUGGCAAGGUGGCUGUGGCUAGACUGCA [C3U A26G C46A], for which the self-cleavage was 0.29.

Turning to GGUGGAGCUCCACACAGCGUGGCAAAGUAGCUGUGCCUAGACUGCC [C3U A4G A11C G29A G36C], the self-cleavage worked out at 0.

Consider GGGAGAGCUCAACACAGCGGGGCGAAGUGGCUGUGGCUAGACUGCC [C3G U20G A24G], for which the self-cleavage was 0.64.

In the case of GGGAGAGCUCAACACAGCGAGGCAAAGGGGCUGUGGCUAGACUGCU [C3G U20A U28G C46U], the self-cleavage is 0.12.

As to GGUAGAGCUCAACUCAGCGUGGCUAAGUUGCUGUGGCUAAACUGCC [C3U A14U A24U G29U G40A], the self-cleavage was 0.05.

For the variant GGUAGAGCUCGACUCAGCGUGGCAAAGUGGCUGUGGCUAGACCGCC [C3U A11G A14U U43C], the self-cleavage was determined as 0.

On to GGUAGCGCUCAACGCAGCGUGGCAAAGUGGCUGUGGCUAGACAGGC [C3U A6C A14G U43A C45G], for which the self-cleavage came to 0.09.

GGGAGAGCUCAACACAGCGUGGCAAAGAAGCUGUGGCUAGACUGCU [C3G U28A G29A C46U]: the self-cleavage came out at 0.24.

GGUAGAGCUCAACACCUCGUGGCAAAGUGGCUGUGACUAGACUCCC [C3U A16C G17U G36A G44C]: the self-cleavage was determined as 0.

As for GGUAGGGCUCUACAGAGCGUGGCAAAGUGGCUGUGGCUAGACUGCC [C3U A6G A11U C15G], the self-cleavage was found to be 0.01.

In the case of GGGAGAGCUCAACACAGCGUGGCAAAGUGGCUCUGGCUACACUGCC [C3G G33C G40C], the self-cleavage amounted to 0.12.

GGUCGAGCUCAACACAGCCUGGCAAAGUGGCUGUGGCUAGACUGCC [C3U A4C G19C]: the self-cleavage was found to be 0.08.

As for GGUCGAGCUUAACACAGCGUGGCAAAGUGGCUGUGGCUAGACUGCC [C3U A4C C10U], the self-cleavage came to 0.06.

Consider GGUAGGGCUCAACACAAUUCGGCAAAGUGGCUGUGGCUAGACAGCC [C3U A6G G17A C18U G19U U20C U43A], for which the self-cleavage worked out at 0.02.

Take GGGAGAGCACAACACAGCGUGGCAAAGUAACUGUGGCUAGACUGCC [C3G U9A G29A G30A]: the self-cleavage was found to be 0.06.

Take GGUAGAGCUCCACACAGCGAGACGAAGUGGCUGUGGCUAGAGUGCC [C3U A11C U20A G22A A24G C42G]: the self-cleavage was determined as 0.04.

For the variant GGUAGAGCUCAACACAGCGUGGCAUUGUGGCUGUGGCUAGACUGCC [C3U A25U A26U], the self-cleavage came to 0.6.

Regarding GGUUGAGCUCAACACGUCGUGGCAAAGUGGCUGGGGCUAGGCUGCC [C3U A4U A16G G17U U34G A41G], the self-cleavage came to 0.12.

As to GGUAGAGCUCAACUCAGAGUGGCAAAGUGGUUGUGGCUAGACUGCC [C3U A14U C18A C31U], the self-cleavage came to 0.01.

Regarding GGUAGAGCUCAACACGGCAUGGCUAAGUGGCUGGGGCUAGACUGCC [C3U A16G G19A A24U U34G], the self-cleavage worked out at 0.02.

Turning to GGUCGAGCUCAACACAGCGUGGCAAAGUGGCUGUGGUUAGACUUCC [C3U A4C C37U G44U], the self-cleavage was 0.09.

As to GGUCGAGCUCAACACAGCGUGGCCAAGUGGCUGAGGCUAGAAUGCC [C3U A4C A24C U34A C42A], the self-cleavage was found to be 0.07.

Regarding GGUAGAGCUCAACACAGCGUGGCUAAGUGGCUGUGGCUAGCCUGCC [C3U A24U A41C], the self-cleavage came out at 0.07.

As to GGUAGAGCUCCACACAGCGUGGCAAAGUGGCUGUGGGUAGACUGCC [C3U A11C C37G], the self-cleavage is 0.02.

Regarding GGGAGAGCUCAACACAGCGUGGCAAAGUAGCUGUGGCGAGACUGCC [C3G G29A U38G], the self-cleavage stood at 0.03.

Consider GGUAGAGCUCCACAGAGCGUAGCUAAGUGACUGUGGCUAGACUGCC [C3U A11C C15G G21A A24U G30A], for which the self-cleavage was 0.01.

For the variant GGUAGAGCUCAACACAGCGUGGCACAGUGGCUGUGGUUAGACUACC [C3U A25C C37U G44A], the self-cleavage stood at 0.07.

Turning to GGGAGAGCGCAAUAUAGCAUGGCAAAGUGGCUGUGGCUCGACUGCC [C3G U9G C13U C15U G19A A39C], the self-cleavage is 0.05.

In the case of GGGAGAGCUCAACACAGCGUGGCAAAGUUGCUGUGGCCAGACUGCC [C3G G29U U38C], the self-cleavage was determined as 0.15.

On to GGGAGAGCUCAACACAGCGUGGCAAAGUUGCUGUGGCGAGACUGCC [C3G G29U U38G], for which the self-cleavage came to 0.24.

For GGUAGAGCUCAACACGGCGUGCCAAGGUGGCUGUGGCUAGACUGCC [C3U A16G G22C A26G], the self-cleavage was 0.02.

In the case of GGUAGAGCUCAACGCUGCGUGGCAAAAUGGCUGUGGCUAGACUGCC [C3U A14G A16U G27A], the self-cleavage came out at 0.29.

For the variant GGUUGCGCUCAACACAGCGUGGCAAAGUCGCUGUUGCUAGACUGCC [C3U A4U A6C G29C G35U], the self-cleavage was 0.02.
